# Data: the supplement of paper PMC8728848
# The list shows a part of the results.
# B1: PLU (Photorhabdus luminiscence) (protein)
# chain: HHHHHHENLYFQSSIVFASIDPRSNPLQTSSQNYVDIPGLKLDVSKYSNSPCLTALITLNIPTPYASGNNFPGGNFAIVTDQGEQLAYGGFTYSSKIPENSGRMPFTLVARYSLASNVSTIKAQWSNIRGSTVHIDSYASISAVIQCNQLV
# How the values were obtained:
# Assay in all cases: glycan array binding signal (z-score within array); higher = stronger binding
# Settings in all cases: glycan notation: IUPAC condensed, linker removed
# [1] = target: Gal(b1-4)GlcNAc(b1-3)Gal(b1-4)GlcNAc(b1-3)Gal(b1-4)GlcNAc(b1-3)Gal(b1-4)GlcNAc(b1-2)Man(a1-3)[Gal(b1-4)GlcNAc(b1-3)Gal(b1-4)GlcNAc(b1-3)Gal(b1-4)GlcNAc(b1-3)Gal(b1-4)GlcNAc(b1-2)Man(a1-6)]Man(b1-4)GlcNAc(b1-4)[Fuc(a1-6)]GlcNAc
# How it was run: (§1)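 Glycan array binding is given as a within-array Z-score, which can be read as non-binding when negative. The arrays, 3228 of them, came from the Consortium for Functional Glycomics database and were retained only where the protein sequence was available. Z-scores were averaged across arrays of the same protein sequence at different concentrations or buffers and across linkers.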
# [2] = target: Gal(b1-4)GlcNAc(b1-3)Gal(b1-4)GlcNAc(b1-3)Gal(b1-4)GlcNAc(b1-3)Gal(b1-4)GlcNAc(b1-2)[Gal(b1-4)GlcNAc(b1-3)Gal(b1-4)GlcNAc(b1-3)Gal(b1-4)GlcNAc(b1-3)Gal(b1-4)GlcNAc(b1-6)]Man(a1-6)[Gal(b1-4)GlcNAc(b1-3)Gal(b1-4)GlcNAc(b1-3)Gal(b1-4)GlcNAc(b1-3)Gal(b1-4)GlcNAc(b1-2)Man(a1-3)]Man(b1-4)GlcNAc(b1-4)[Fuc(a1-6)]GlcNAc
# How it was run: as §1
# [3] = target: Gal(b1-4)GlcNAc(b1-3)Gal(b1-4)GlcNAc(b1-3)Gal(b1-4)GlcNAc(b1-3)Gal(b1-4)GlcNAc(b1-3)Gal(b1-4)GlcNAc(b1-2)Man(a1-3)[Gal(b1-4)GlcNAc(b1-3)Gal(b1-4)GlcNAc(b1-3)Gal(b1-4)GlcNAc(b1-3)Gal(b1-4)GlcNAc(b1-3)Gal(b1-4)GlcNAc(b1-2)Man(a1-6)]Man(b1-4)GlcNAc(b1-4)GlcNAc
# How it was run: as §1
# [4] = target: Gal(b1-4)GlcNAc(b1-3)Gal(b1-4)GlcNAc(b1-3)Gal(b1-4)GlcNAc(b1-3)Gal(b1-4)GlcNAc(b1-3)Gal(b1-4)GlcNAc(b1-2)Man(a1-3)[Gal(b1-4)GlcNAc(b1-3)Gal(b1-4)GlcNAc(b1-3)Gal(b1-4)GlcNAc(b1-3)Gal(b1-4)GlcNAc(b1-3)Gal(b1-4)GlcNAc(b1-2)Man(a1-6)]Man(b1-4)GlcNAc(b1-4)[Fuc(a1-6)]GlcNAc
# How it was run: as §1
# [5] = target: Gal(b1-4)GlcNAc(b1-3)Gal(b1-4)GlcNAc(b1-3)Gal(b1-4)GlcNAc(b1-3)Gal(b1-4)GlcNAc(b1-3)Gal(b1-4)GlcNAc(b1-2)[Gal(b1-4)GlcNAc(b1-3)Gal(b1-4)GlcNAc(b1-3)Gal(b1-4)GlcNAc(b1-3)Gal(b1-4)GlcNAc(b1-3)Gal(b1-4)GlcNAc(b1-6)]Man(a1-6)[Gal(b1-4)GlcNAc(b1-3)Gal(b1-4)GlcNAc(b1-3)Gal(b1-4)GlcNAc(b1-3)Gal(b1-4)GlcNAc(b1-3)Gal(b1-4)GlcNAc(b1-2)Man(a1-3)]Man(b1-4)GlcNAc(b1-4)[Fuc(a1-6)]GlcNAc
# How it was run: as §1
# [6] = target: Gal(b1-4)GlcNAc(b1-3)Gal(b1-4)GlcNAc(b1-3)Gal(b1-4)GlcNAc(b1-3)Gal(b1-4)GlcNAc(b1-3)Gal(b1-4)GlcNAc(b1-3)Gal(b1-4)GlcNAc(b1-2)Man(a1-3)[Gal(b1-4)GlcNAc(b1-3)Gal(b1-4)GlcNAc(b1-3)Gal(b1-4)GlcNAc(b1-3)Gal(b1-4)GlcNAc(b1-3)Gal(b1-4)GlcNAc(b1-3)Gal(b1-4)GlcNAc(b1-2)Man(a1-6)]Man(b1-4)GlcNAc(b1-4)GlcNAc
# How it was run: as §1
# [7] = target: Gal(b1-4)GlcNAc(b1-3)Gal(b1-4)GlcNAc(b1-3)GalNAc
# How it was run: as §1
# [8] = target: Gal(b1-4)GlcNAc(b1-3)Gal(b1-4)GlcNAc(b1-3)[Gal(b1-4)GlcNAc(b1-3)Gal(b1-4)GlcNAc(b1-6)]GalNAc
# How it was run: as §1
# [9] = target: Gal(b1-4)GlcNAc(b1-3)Gal(b1-4)GlcNAc(b1-6)[Gal(b1-3)]GalNAc
# How it was run: as §1
# [10] = target: Gal(b1-4)GlcNAc(b1-3)Gal(b1-4)[Fuc(a1-3)]GlcNAc(b1-3)Gal(b1-4)[Fuc(a1-3)]GlcNAc
# How it was run: as §1
# [11] = target: Gal(b1-4)GlcNAc(b1-3)GalNAc
# How it was run: as §1
# [12] = target: Gal(b1-4)GlcNAc(b1-3)[Fuc(a1-3)GlcNAc(b1-6)]Gal(b1-4)Glc
# How it was run: as §1
# [13] = target: Gal(b1-4)GlcNAc(b1-3)[Gal(b1-4)GlcNAc(b1-6)]Gal(b1-4)GlcNAc
# How it was run: as §1
# [14] = target: Gal(b1-4)GlcNAc(b1-3)[GlcNAc(b1-6)]Gal(b1-4)GlcNAc
# How it was run: as §1
# [15] = target: Gal(b1-4)GlcNAc(b1-6)Gal(b1-4)GlcNAc
# How it was run: as §1
# [16] = target: Gal(b1-4)GlcNAc(b1-6)GalNAc
# How it was run: as §1
# [17] = target: Gal(b1-4)GlcNAc(b1-6)[Gal(b1-3)]GalNAc
# How it was run: as §1
# [18] = target: Gal(b1-4)GlcNAc(b1-6)[Gal(b1-4)GlcNAc(b1-3)]GalNAc
# How it was run: as §1
# Gal(b1-4)GlcNAc6P = target: Gal(b1-4)GlcNAc6P
# How it was run: as §1
# Gal(b1-6)Gal = target: Gal(b1-6)Gal
# How it was run: as §1
# Gal3S(b1-3)GalNAc = target: Gal3S(b1-3)GalNAc
# How it was run: as §1
# Gal3S(b1-3)GlcNAc = target: Gal3S(b1-3)GlcNAc
# How it was run: as §1
# [19] = target: Gal3S(b1-3)[Fuc(a1-4)]GlcNAc
# How it was run: as §1
binder,measurement,setting,value
B1,glycan array binding signal (z-score),[1],-0.203
same,glycan array binding signal (z-score),[2],-0.152
same,glycan array binding signal (z-score),[3],-0.254
same,glycan array binding signal (z-score),[4],-0.211
same,glycan array binding signal (z-score),[5],-0.211
same,glycan array binding signal (z-score),[6],-0.163
same,glycan array binding signal (z-score),[7],-0.042
same,glycan array binding signal (z-score),[8],-0.111
same,glycan array binding signal (z-score),[9],-0.24
same,glycan array binding signal (z-score),[10],-0.262
same,glycan array binding signal (z-score),[11],-0.254
same,glycan array binding signal (z-score),[12],-0.227
same,glycan array binding signal (z-score),[13],-0.268
same,glycan array binding signal (z-score),[14],-0.329
same,glycan array binding signal (z-score),[15],-0.221
same,glycan array binding signal (z-score),[16],-0.243
same,glycan array binding signal (z-score),[17],-0.284
same,glycan array binding signal (z-score),[18],-0.197
same,glycan array binding signal (z-score),Gal(b1-4)GlcNAc6P,-0.27
same,glycan array binding signal (z-score),Gal(b1-6)Gal,-0.313
same,glycan array binding signal (z-score),Gal3S(b1-3)GalNAc,-0.22
same,glycan array binding signal (z-score),Gal3S(b1-3)GlcNAc,-0.305
same,glycan array binding signal (z-score),[19],-0.26
